{"source": "the supplement of paper PMC8728848", "test_in_all_cases": "glycan array binding signal (z-score within array); higher = stronger binding", "conditions_in_all_cases": "glycan notation: IUPAC condensed, linker removed", "key": {"[1]": {"biological_target": "Neu5Ac(a2-6)GlcNAc(b1-4)GlcNAc(b1-4)GlcNAc", "summary_of_the_method": "(§1)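 The binding signal is a Z-score computed within each array and averaged over linkers. Arrays of the same protein sequence at different concentrations or buffers were also averaged together. Data originate from 3228 arrays in the Consortium for Functional Glycomics database, kept only where the protein sequence was available.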"}, "Neu5Ac(a2-8)Neu5Ac": {"biological_target": "Neu5Ac(a2-8)Neu5Ac", "summary_of_the_method": "as §1"}, "[2]": {"biological_target": "Neu5Ac(a2-8)Neu5Ac(a2-3)Gal(b1-3)GalNAc(b1-4)[Neu5Ac(a2-3)]Gal(b1-4)Glc", "summary_of_the_method": "as §1"}, "[3]": {"biological_target": "Neu5Ac(a2-8)Neu5Ac(a2-3)Gal(b1-3)GalNAc(b1-4)[Neu5Ac(a2-8)Neu5Ac(a2-3)]Gal(b1-4)Glc", "summary_of_the_method": "as §1"}, "[4]": {"biological_target": "Neu5Ac(a2-8)Neu5Ac(a2-3)Gal(b1-4)Glc", "summary_of_the_method": "as §1"}, "[5]": {"biological_target": "Neu5Ac(a2-8)Neu5Ac(a2-3)Gal(b1-4)GlcNAc", "summary_of_the_method": "as §1"}, "[6]": {"biological_target": "Neu5Ac(a2-8)Neu5Ac(a2-3)[Gal(b1-3)GalNAc(b1-4)]Gal(b1-4)Glc", "summary_of_the_method": "as §1"}, "[7]": {"biological_target": "Neu5Ac(a2-8)Neu5Ac(a2-3)[GalNAc(b1-4)]Gal(b1-4)Glc", "summary_of_the_method": "as §1"}, "[8]": {"biological_target": "Neu5Ac(a2-8)Neu5Ac(a2-8)Neu5Ac", "summary_of_the_method": "as §1"}, "[9]": {"biological_target": "Neu5Ac(a2-8)Neu5Ac(a2-8)Neu5Ac(a2-3)Gal(b1-4)Glc", "summary_of_the_method": "as §1"}, "[10]": {"biological_target": "Neu5Ac(a2-8)Neu5Ac(a2-8)Neu5Ac(a2-3)[Gal(b1-3)GalNAc(b1-4)]Gal(b1-4)Glc", "summary_of_the_method": "as §1"}, "[11]": {"biological_target": "Neu5Ac(a2-8)Neu5Ac(a2-8)Neu5Ac(a2-3)[GalNAc(b1-4)]Gal(b1-4)Glc", "summary_of_the_method": "as §1"}, "[12]": {"biological_target": "Neu5Ac(a2-8)Neu5Ac(a2-8)Neu5Ac(a2-8)Neu5Ac(a2-3)[GalNAc(b1-4)]Gal(b1-4)Glc", "summary_of_the_method": "as §1"}, "[13]": {"biological_target": "Neu5Ac(a2-8)Neu5Gc(a2-3)Gal(b1-4)GlcNAc", "summary_of_the_method": "as §1"}, "[14]": {"biological_target": "Neu5Ac(b2-6)Gal(b1-4)GlcNAc", "summary_of_the_method": "as §1"}, "Neu5Ac(b2-6)GalNAc": {"biological_target": "Neu5Ac(b2-6)GalNAc", "summary_of_the_method": "as §1"}, "[15]": {"biological_target": "Neu5Ac9Ac(a2-3)Gal(b1-3)GlcNAc", "summary_of_the_method": "as §1"}, "[16]": {"biological_target": "Neu5Ac9Ac(a2-3)Gal(b1-4)GlcNAc", "summary_of_the_method": "as §1"}, "[17]": {"biological_target": "Neu5Ac9Ac(a2-6)Gal(b1-4)GlcNAc", "summary_of_the_method": "as §1"}, "[18]": {"biological_target": "Neu5Gc(a2-3)Gal(b1-3)GlcNAc", "summary_of_the_method": "as §1"}, "[19]": {"biological_target": "Neu5Gc(a2-3)Gal(b1-3)[Fuc(a1-4)]GlcNAc", "summary_of_the_method": "as §1"}, "Neu5Gc(a2-3)Gal(b1-4)Glc": {"biological_target": "Neu5Gc(a2-3)Gal(b1-4)Glc", "summary_of_the_method": "as §1"}, "[20]": {"biological_target": "Neu5Gc(a2-3)Gal(b1-4)GlcNAc", "summary_of_the_method": "as §1"}, "[21]": {"biological_target": "Neu5Gc(a2-3)Gal(b1-4)GlcNAc(b1-3)Gal(b1-4)GlcNAc(b1-2)Man(a1-3)[Neu5Gc(a2-3)Gal(b1-4)GlcNAc(b1-3)Gal(b1-4)GlcNAc(b1-2)Man(a1-6)]Man(b1-4)GlcNAc(b1-4)GlcNAc", "summary_of_the_method": "as §1"}, "[22]": {"biological_target": "Neu5Gc(a2-3)Gal(b1-4)[Fuc(a1-3)]GlcNAc", "summary_of_the_method": "as §1"}, "[23]": {"biological_target": "Neu5Gc(a2-6)Gal(b1-4)GlcNAc", "summary_of_the_method": "as §1"}, "Neu5Gc(a2-6)GalNAc": {"biological_target": "Neu5Gc(a2-6)GalNAc", "summary_of_the_method": "as §1"}, "[24]": {"biological_target": "Neu5Gc(a2-8)Neu5Ac(a2-3)Gal(b1-4)GlcNAc", "summary_of_the_method": "as §1"}, "[25]": {"biological_target": "Neu5Gc(a2-8)Neu5Gc(a2-3)Gal(b1-4)GlcNAc", "summary_of_the_method": "as §1"}, "[26]": {"biological_target": "Neu5Gc(a2-8)Neu5Gc(a2-3)Gal(b1-4)GlcNAc(b1-3)Gal(b1-4)GlcNAc", "summary_of_the_method": "as §1"}, "[27]": {"biological_target": "Neu5Gc(a2-8)Neu5Gc(a2-6)Gal(b1-4)GlcNAc", "summary_of_the_method": "as §1"}, "[28]": {"biological_target": "Neu5Gc(b2-6)Gal(b1-4)GlcNAc", "summary_of_the_method": "as §1"}}, "note": "The list shows a part of the results."}
{"binder": "Cohesin-hDECTIN-1 (Homo sapiens) (protein) LDITSHHHHHHDDLDAVRIKVDTVNAKPGDTVRIPVRFSGIPSKGIANCDFVYSYDPNVLEIIEIEPGDIIVDPNPDKSFDTAVYPDRKIIVFLFAEDSGTGAYAITKDGVFATIVAKVKEGAPNGLSVIKFVEVGGFANNDLVEQKTQFFDGGVNVGDTTEPATPTTPVTTPTTTDDLDAASSSPCPPNWIIYEKSCYLFSMSLNSWDGSKRQCWQLGSNLLKIDSSNELGFIVKQVSSQPDNSFWIGLSRPQTEVPWLWEDGSTFSSNLFQIRTTATQENPSPNCVWIHVSVIYDQLCSVPSYSICEKKFM", "values": [{"measurement": "glycan array binding signal (z-score)", "setting": "[1]", "value": -0.326}, {"measurement": "glycan array binding signal (z-score)", "setting": "Neu5Ac(a2-8)Neu5Ac", "value": -0.512}, {"measurement": "glycan array binding signal (z-score)", "setting": "[2]", "value": -0.325}, {"measurement": "glycan array binding signal (z-score)", "setting": "[3]", "value": -0.362}, {"measurement": "glycan array binding signal (z-score)", "setting": "[4]", "value": -0.4}, {"measurement": "glycan array binding signal (z-score)", "setting": "[5]", "value": 0.057}, {"measurement": "glycan array binding signal (z-score)", "setting": "[6]", "value": -0.161}, {"measurement": "glycan array binding signal (z-score)", "setting": "[7]", "value": 0.971}, {"measurement": "glycan array binding signal (z-score)", "setting": "[8]", "value": -0.31}, {"measurement": "glycan array binding signal (z-score)", "setting": "[9]", "value": -0.569}, {"measurement": "glycan array binding signal (z-score)", "setting": "[10]", "value": -0.332}, {"measurement": "glycan array binding signal (z-score)", "setting": "[11]", "value": 0.573}, {"measurement": "glycan array binding signal (z-score)", "setting": "[12]", "value": 0.696}, {"measurement": "glycan array binding signal (z-score)", "setting": "[13]", "value": -0.156}, {"measurement": "glycan array binding signal (z-score)", "setting": "[14]", "value": -0.362}, {"measurement": "glycan array binding signal (z-score)", "setting": "Neu5Ac(b2-6)GalNAc", "value": -0.285}, {"measurement": "glycan array binding signal (z-score)", "setting": "[15]", "value": 0.799}, {"measurement": "glycan array binding signal (z-score)", "setting": "[16]", "value": -0.414}, {"measurement": "glycan array binding signal (z-score)", "setting": "[17]", "value": -0.335}, {"measurement": "glycan array binding signal (z-score)", "setting": "[18]", "value": 0.164}, {"measurement": "glycan array binding signal (z-score)", "setting": "[19]", "value": -0.251}, {"measurement": "glycan array binding signal (z-score)", "setting": "Neu5Gc(a2-3)Gal(b1-4)Glc", "value": -0.271}, {"measurement": "glycan array binding signal (z-score)", "setting": "[20]", "value": -0.334}, {"measurement": "glycan array binding signal (z-score)", "setting": "[21]", "value": 0.103}, {"measurement": "glycan array binding signal (z-score)", "setting": "[22]", "value": -0.296}, {"measurement": "glycan array binding signal (z-score)", "setting": "[23]", "value": -0.121}, {"measurement": "glycan array binding signal (z-score)", "setting": "Neu5Gc(a2-6)GalNAc", "value": 2.2}, {"measurement": "glycan array binding signal (z-score)", "setting": "[24]", "value": -0.39}, {"measurement": "glycan array binding signal (z-score)", "setting": "[25]", "value": -0.504}, {"measurement": "glycan array binding signal (z-score)", "setting": "[26]", "value": -0.091}, {"measurement": "glycan array binding signal (z-score)", "setting": "[27]", "value": -0.323}, {"measurement": "glycan array binding signal (z-score)", "setting": "[28]", "value": -0.412}]}
